Drawing on PubChem BioAssay AID463173 (ICCB-Longwood Screening Facility, Harvard Medical School, 2010), this text covers survival for 86 molecules.

Among all 52,000 compounds or so, about 1,700 (3.3%) were called active. Cut-off read from the data, not from the text of the source: active = survival mostly below about 52% (no sharp cut-off); inactive = mostly above about 56%. The list shows a part of the results.

The assay deals with Wild type. In words: growth inhibition of S. aureus wild type versus tarO mutant, primary screen, teichoic acid synthesis inhibitors, RN4220, OD600 (AID 463173). Particulars: S. aureus RN4220 wild type/DeltatarO growth, OD600, 18 h, active compounds read low, screened at 18.75 µg/mL (by protocol).
In the case of `CCc1ccc(NCc2cc3cc4c(cc3n(CC(=O)Nc3ccccc3OC)c2=O)OCCO4)cc1`, the survival is inactive: 68%. Turning to `Cc1cc(NC(=O)Nc2nnc(N(C)C3CCCCC3)s2)ccc1Br`, the survival was inactive: 82%. Then `COc1ccc(C(=O)N2CCC(c3nc4ccccc4s3)CC2)cc1Cl`, with inactive: 84%. With `Cc1ccc2oc(C(=O)Nc3ccc(S(=O)(=O)N(C)c4ccccc4)cc3)cc(=O)c2c1`, the survival was inactive: 108%.

With `O=C(NC1CCN(C(=O)Nc2cccc(F)c2)CC1)c1ccco1`, the survival was inactive: 96%. Then `Cc1cccc(NC(=O)Cn2ncc3c4ccccc4n(Cc4ccccc4)c3c2=O)c1C`, with inactive: 89%; and `Cc1ccc(S(=O)(=O)CCC(=O)Nc2ccc(OC(F)(F)F)cc2)cc1`, with inactive: 71%. Then `CCC(Sc1nc2ccncc2[nH]1)C(=O)Nc1cc(Cl)ccc1C` (stereo unspecified), with inactive: 126%; and `COc1cc(Cl)c(C)cc1NC(=O)CSc1nc2c(c(=O)[nH]1)CCC2`, with inactive: 79%; and `O=C(c1ccc2c(c1)N(Cc1ccccc1F)C(=O)c1ccccc1S2(=O)=O)N1CCc2ccccc21`, with inactive: 91%. The figure for `CCc1ccccc1NC(=O)Cn1c(=O)n(CCCCCC(=O)NCc2ccc(C)cc2)c(=O)c2sccc21` is inactive: 89%. `FC(F)(F)c1cccc(-n2nnnc2-c2ccccc2)c1`: the survival was inactive: 101%. Regarding `CCOC(=O)c1cccc(NC(=O)CC2C(=O)N(c3ccc(Cl)cc3)C(=O)N2C2CCCC2)c1` (stereo unspecified), the survival is inactive: 85%.

As to `CCc1ccc(S(=O)(=O)c2nnn3c2nc(N2CCOCC2)c2sccc23)cc1`, the survival was inactive: 88%. The figure for `CS(=O)(=O)N1CCC(c2nc(-c3ccc(S(=O)(=O)NCC4CCCO4)cc3)no2)CC1` (stereo unspecified) is inactive: 113%; for `Cc1ccc(N2CC(c3nc(-c4ccc(Cl)cc4)no3)CC2=O)cc1F` (stereo unspecified) it is inactive: 73%.

In the case of `Cc1cc(N2CCC(C(=O)Nc3ccc(F)cc3C)CC2)n2nc(C)c(-c3ccc(Cl)cc3)c2n1`, the survival is inactive: 77%. With `O=C(NCCc1ccc(Cl)cc1)c1ccco1`, the survival is inactive: 104%.

`Cc1cc(Br)ccc1NC(=O)C1CCCN(S(=O)(=O)c2cccc3nonc23)C1` (stereo unspecified): the survival is inactive: 96%. Turning to `CCc1cccc(CC)c1NC(=O)C1CCC(CNS(=O)(=O)c2cccc3nsnc23)CC1` (stereo unspecified), the survival is inactive: 65%. The figure for `COc1ccc2cc3cc(C(=O)Nc4cc(C)c(Cl)cc4OC)oc3nc2c1` is inactive: 88%. The figure for `COc1cc(Cl)c(NC(=O)c2cc(S(=O)(=O)N3CCCCC3)c[nH]2)c(OC)c1` is inactive: 123%. The figure for `Cc1sc2c(c1C)c(=O)n(-c1ccc(Cl)cc1)c(=O)n2Cc1cc(=O)n2cc(Br)ccc2n1` is inactive: 73%. As to `COc1ccc(NC(=O)CSc2oc(-c3ccc(F)cc3)nc2S(=O)(=O)c2ccc(C)cc2)c(OC)c1`, the survival is inactive: 68%.

With `CC(=O)c1cccc(NS(=O)(=O)c2cc(-c3onc(C)c3C)ccc2C)c1`, the survival was inactive: 84%. As for `CCOC(=O)c1c(S(=O)(=O)N2CCCC(C(=O)NCc3ccccc3Cl)C2)c(C)n(C)c1C` (stereo unspecified), the survival was inactive: 127%. Then `CCOc1ccccc1NC(=O)CSc1nc2c(sc3ccccc32)c(=O)n1CCCC(=O)NC1CCCC1`, with inactive: 90%. Take `COc1cc(NC(=O)C2CCN(S(=O)(=O)c3ccc4c(c3)CCCC(=O)N4)CC2)cc(OC)c1`: the survival was inactive: 67%. Consider `O=C(Nc1ccccc1)N(Cc1c[nH]c2ccccc12)C1CCCCCC1`, for which the survival was inactive: 48%. Then `CNC(=O)c1ccc(CN2CCc3ccccc3C2)cc1`, with inactive: 107%; and `COc1cccc(CNC(=O)c2ccc(CNS(=O)(=O)c3ccc(C)cc3)cc2)c1`, with inactive: 91%; and `CCN(c1ccccc1)S(=O)(=O)c1nnc(NC(=O)c2ccccc2)s1`, with inactive: 69%. As to `Cc1cccc(N2CCN(C(=O)c3cnn(-c4ccccc4Cl)c3C3CCN(C(=O)OC(C)(C)C)CC3)CC2C)c1` (stereo unspecified), the survival is inactive: 66%. Then `COCCN1C(=O)C(=O)/C(=C(/O)c2ccccc2)C1c1ccccc1` (stereo unspecified), with inactive: 105%.

Take `Cc1cccc(OCc2nc(CC(=O)Nc3ccc(C)cc3C)cs2)c1`: the survival was inactive: 91%. Take `CC1CCc2c(sc3nnn(CCCCOc4ccc(Cl)cc4)c(=O)c23)C1` (stereo unspecified): the survival was inactive: 119%.

For `COc1ccc(CNCCCSc2nnnn2-c2ccccc2)cc1`, the survival is inactive: 86%. On to `COc1ccc(S(=O)(=O)NCCc2sc(-c3cccnc3)nc2C)c(F)c1`, for which the survival is inactive: 75%. Turning to `CCc1ccc(C2c3c(oc4ccc(F)cc4c3=O)C(=O)N2CCc2ccc(OC)cc2)cc1` (stereo unspecified), the survival is inactive: 69%. With `CCN(CC)CCNC(=O)C(=O)NCC(c1cccnc1)N1CCN(c2ccc(F)cc2)CC1` (stereo unspecified), the survival was inactive: 83%. For the molecule `O=C(Nc1ccccc1C(F)(F)F)c1cc(-c2ccc3c(c2)OCCO3)on1`, the survival is inactive: 113%. Then `Cc1ccc(CNC(=O)Cn2c(=O)ccc3cc(S(=O)(=O)N4CCC(C)CC4)ccc32)cc1`, with active: 10%. As for `COc1ccc(-c2cc(C(=O)NC(C)c3ccccc3)c3cc(C(C)C)ccc3n2)cc1` (stereo unspecified), the survival is inactive: 75%. The figure for `CCOC(=O)c1c(NC(=O)c2cc(OCC)c(OCC)c(OCC)c2)sc2c1CCCCC2` is inactive: 83%; for `Cc1ccc(C2CCN(C(=O)Nc3ccc(Cl)cc3)C2)cc1` (stereo unspecified) it is inactive: 71%; for `Cc1c(Cl)cccc1NC(=O)CNS(=O)(=O)c1cccs1` it is inactive: 91%. Then `Cc1nc2sccn2c(=O)c1S(=O)(=O)Nc1ccc(N2CCOCC2)cc1`, with inactive: 93%; and `Cc1cc(=O)[nH]c2nnc(SCc3c(F)cccc3Cl)n12`, with inactive: 140%. On to `Cc1ccc(OCc2nc(-c3ccc(C(=O)N4CCN(c5cccc(C(F)(F)F)c5)CC4)cc3)oc2C)cc1`, for which the survival is inactive: 70%. Regarding `N#CC(C#N)=Cc1ccc(OCC(O)Cn2c3ccccc3c3ccccc32)cc1` (stereo unspecified), the survival was inactive: 106%. Take `CCOC(=O)CCn1cnc2onc(-c3cc(OC)ccc3Cl)c2c1=O`: the survival is inactive: 84%. The figure for `CCOc1ccc2c(c1)sc1nc(=O)n(-c3ccc(Cl)c(Cl)c3)c(=O)n12` is inactive: 74%; for `COc1ccc(N(CC(C)C)S(=O)(=O)c2nnc(NC(=O)c3cccs3)s2)cc1` it is inactive: 50%; for `NS(=O)(=O)c1ccc(N(C(=O)Cn2nnc3ccccc32)C(C(=O)NC2CCCC2)c2cccs2)cc1` (stereo unspecified) it is inactive: 102%. As to `CSc1cccc(NC(=O)C2CCN(S(=O)(=O)c3ccc4c(c3)CCCN4C(=O)C3CCC3)CC2)c1`, the survival is inactive: 68%. `O=C(Nc1ccc2nc(SCC(=O)N3CCc4ccccc43)sc2c1)c1cccc(F)c1`: the survival is inactive: 87%. For the molecule `CCOC(=O)c1sc(=S)n(C)c1C`, the survival is inactive: 111%. In the case of `COc1ccc(Cl)cc1NC(=O)CSc1nc2ccccc2c2nc(-c3ccccc3)nn12`, the survival was inactive: 71%. In the case of `Cc1ccccc1-c1nc(CS(=O)(=O)CC(=O)NCCc2ccccc2)c(C)o1`, the survival was inactive: 84%. The figure for `Cc1cccc(NC(=O)c2ccc3c(O)c(S(=O)(=O)c4ccccc4)c(=O)[nH]c3c2)c1C` is inactive: 89%; for `Cc1ccc(C(=O)Nc2ccccc2)cc1S(=O)(=O)Nc1ccc(Br)cc1` it is active: 7%; for `Cc1ccc(C(=O)N2CCc3cc(CNC(=O)c4ccc(Br)cc4)ccc32)cc1` it is inactive: 75%. With `COc1ccc(CSc2nnc(C)s2)cc1F`, the survival was inactive: 98%. Then `O=S(=O)(c1ccc(-c2cc(C(F)(F)F)on2)s1)N1CCN(c2ccccc2)CC1`, with inactive: 83%; and `COCCNC(=O)CCn1c(=O)c2cc(OC)c(OC)cc2n(CC(=O)Nc2ccccc2C)c1=O`, with inactive: 92%; and `CS(=O)(=O)NCC(c1ccco1)N1CCN(c2ccc(F)cc2)CC1` (stereo unspecified), with inactive: 112%. The figure for `CCOC(=O)c1cnc2c(Cl)cc(Cl)cc2c1Nc1cc(C(=O)O)ccc1C` is inactive: 61%; for `Cc1cccc(C)c1NC(=O)C(=O)NCC(c1ccc2c(c1)OCO2)N1CCOCC1` (stereo unspecified) it is inactive: 66%.

Regarding `CCN(C(=O)CSc1nnc2scc(-c3cccc(OC)c3)n12)c1ccccc1`, the survival was inactive: 110%. Then `CCc1ccccc1NC(=O)Nc1cc(C(=O)NCc2cccc(F)c2)ccc1N1CCCC1`, with inactive: 78%; and `COCCCn1c(=N)c(C(=O)NCc2ccco2)cc2c(=O)n3cccc(C)c3nc21`, with inactive: 75%.

As for `Cc1oc(-c2cccc(Cl)c2)nc1CN1CCCC(C(=O)NCCc2ccc(Cl)cc2)C1` (stereo unspecified), the survival is active: -2%. The figure for `CCc1ccc(S(=O)(=O)c2nnn3c2nc(Nc2ccc(C)c(Cl)c2)c2sccc23)cc1` is inactive: 85%. Then `O=C(Cn1ncn2nc(-c3cccs3)cc2c1=O)NCc1ccc(Cl)cc1`, with inactive: 90%; and `CC(C)CNC(=O)C(=O)Nc1c2c(nn1-c1ccccc1)CS(=O)(=O)C2`, with inactive: 72%. On to `CCn1c(SCc2cccc(Br)c2)nnc1-c1nonc1NC(C)=O`, for which the survival was inactive: 109%. In the case of `CC(=O)Nc1cc(C(=O)NCc2ccc(C)cc2)ccc1S(=O)(=O)c1ccc(Cl)cc1`, the survival was inactive: 85%.

For the molecule `CCOC(=O)CN1C(C(=O)c2ccccc2)=C(OC(=O)C(C)(C)C)c2ccccc2S1(=O)=O`, the survival is inactive: 51%. In the case of `CCOc1ccc2nc(NCCNC(=S)NC)c(C#N)cc2c1`, the survival was inactive: 106%. Take `CSc1cccc(NC(=O)Cn2c(=O)n(Cc3ccccc3)c(=O)c3sc4ccccc4c32)c1`: the survival is inactive: 89%. The figure for `Cc1cc(C)n(-c2nc3cc(Cl)ccc3nc2Nc2ccc(C)c(F)c2)n1` is inactive: 86%; for `Cc1cc(C)c(NC(=O)c2cc(S(=O)(=O)NCCC3=CCCCC3)ccc2F)c(C)c1` it is inactive: 94%; for `Cc1ccc(-n2ncc(C(=O)NCCN3CCCC3)c2C2CCN(C(=O)OC(C)(C)C)CC2)cc1` it is inactive: 153%. The figure for `CCn1ccc2cc(S(=O)(=O)N3CCC(C(=O)NCc4cccc(Cl)c4)CC3)ccc21` is inactive: 85%. For `CCOC(=O)c1sc(N/C=C(\C#N)c2nc3cc(Cl)ccc3o2)c(C#N)c1C`, the survival is inactive: 98%.

Regarding `O=C(CN(Cc1ccc2c(c1)OCO2)C(=O)c1cnsn1)NC1CCCC1`, the survival was inactive: 109%.
